The record followed here is ChEMBL document CHEMBL1201862, “PubChem BioAssay data set” (2004).

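Dose response: 5 concentrations. Exposure: 48 h. Format: 96-well plates. Endpoint: linear interpolation; highest concentration if not reached. At the GI50, growth is halved.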 Active and inactive are the calls of the source. Cut-off read from the data, not from the text of the source: active = GI50 up to about 1.1 µM and inactive = higher.

The assay deals with NCI-H322M. Kind of assay: inhibition of tumour cell growth, NCI panel, 48 h.
In the case of `COc1ccc2nc3n(c2c1)C(=O)c1ccccc1-3`, the GI50 is inactive: > 100 µM. Turning to `COc1ccc2cc1Oc1ccc(cc1)CC1c3c(cc(OC)c4c3Oc3cc5c(cc3O4)CCNC5C2)CCN1C` (stereo not drawn), the GI50 was inactive: 1.89 µM. For `CN1CCN(CCCN2c3ccccc3Sc3ccc(C(F)(F)F)cc32)CC1`, the GI50 was inactive: 7.83 µM.

Regarding `CC(C)C(=O)Cc1ccc2ccccc2n1`, the GI50 was inactive: > 100 µM. With `C[C@]12CCC3c4ccc(O)cc4CC[C@H]3C1CC(=O)N(N)C2=O` (stereo partly drawn), the GI50 was inactive: > 100 µM.

With `CC1CC(=O)C(CC(=O)O)C1C(C(=O)C(=O)Nc1c(C#N)cccc1[N+](=O)[O-])[N+](=O)[O-]` (stereo not drawn), the GI50 is inactive: > 100 µM. In the case of `O=C(OC1C(Oc2ccccc2COC(=O)C2(O)C=CCCC2=O)OC(CO)C(O)C1O)c1ccccc1` (stereo not drawn) it was inactive: 29.9 µM.

Turning to `O=c1[nH]nc(Cc2ccccc2)n1CCO`, the GI50 is inactive: > 100 µM. With `Cc1ccccc1NC(=O)C(=O)CC(=O)c1sc(-n2nc(-c3ccccc3)cc2-c2ccccc2)nc1C`, the GI50 is inactive: > 100 µM.

`COC(=O)/C=C\C1C(C(=O)OC)C2(C(=O)OC)CCC1(C(=O)OC)N2` (stereo not drawn): the GI50 is inactive: 16.7 µM.

As for `Cc1ccccc1C(=O)C#Cc1cn(C2CC(O)C(CO)O2)c(=O)[nH]c1=O` (stereo not drawn), the GI50 is inactive: > 100 µM.

In the case of `CCOC(=O)C[C@@H]1C2(C=C[C@@]13CO3)OCC(C)(C)CO2`, the GI50 was inactive: > 100 µM. Next, `COc1ccc(-c2cc(C(=O)Nc3cc(C(F)(F)F)cc(C(F)(F)F)c3)c3ccccc3n2)cc1`: inactive: 4.01 µM. As to `COC(=O)[C@H](C)[C@H]1CC[C@@](C)([C@H]2CC3C(C)(C)[C@H]4CCC(C)=C[C@H]4C[C@@]3(C)O2)OO1` (stereo partly drawn), the GI50 is inactive: 16 µM. For `N[C@@H]1c2c(Br)sc(Br)c2C(=O)[C@H]1Br`, the GI50 was inactive: > 100 µM. In the case of `O=S(=O)(N=S(c1ccccc1)c1ccccc1)c1ccccc1` it was inactive: > 100 µM; in that of `CC1=C(C(=O)Nc2cccc(Cl)c2)C(c2ccccc2O)C(C(=O)Nc2cccc(Cl)c2)=C(C)N1`, inactive: 25.2 µM; in that of `Cc1ccc(S(=O)(=O)C2=Cc3ccc(C(F)(F)F)cc3C2(O)c2cccc(C(F)(F)F)c2)cc1` (stereo not drawn), inactive: 4.16 µM. For the molecule `C/C=C1\C=C(OC)CN(CCc2c[nH]c3ccccc23)C1`, the GI50 is inactive: 37.1 µM. For the molecule `COc1cc(C2c3c(ccc4ccccc34)C(=O)C3CCC(=O)N32)cc(OC)c1OC` (stereo not drawn), the GI50 is inactive: > 50 µM.

Consider `CN(C)c1ccc(/C=C/c2cc(-c3ccccc3)[n+](C)n2-c2ccccc2)cc1`, for which the GI50 is inactive: 1.32 µM. For the molecule `[N-]=[N+]=Nc1cc(=O)oc2ccccc12`, the GI50 was inactive: > 100 µM. With `COc1ccc(-c2cc(-c3ccccc3)c3c(n2)-c2ccccc2NC(=O)C3)cc1`, the GI50 is inactive: 80.2 µM. Consider `CN(C)CN(C)c1nc(N(C)C)nc(N(C)CN(C)C)n1`, for which the GI50 was inactive: > 100 µM. `Cc1ccc(C2C(Cl)C(=O)N2n2cnc3ccccc3c2=O)cc1` (stereo not drawn): the GI50 is inactive: > 100 µM.

For the molecule `CC1=NC=C(O)c2ccccc2O1`, the GI50 was inactive: > 100 µM. For `CC1SC2=NC3=C(c4ccccc4C3=O)C(c3ccccc3Cl)N2C1=O` (stereo not drawn), the GI50 is inactive: > 100 µM.

Turning to `CN(C)CCN(C)C(=O)c1cccc2cccc(C(=O)O)c12`, the GI50 is inactive: > 100 µM. In the case of `Cc1n[nH]c(=O)n1N=C(c1ccccc1)c1ccccc1` it was inactive: > 100 µM; in that of `CCOC(=O)c1c(SCc2cc(=O)[nH]c(=O)[nH]2)n(-c2ccccc2)c(=S)n(-c2ccccc2)c1=O`, inactive: > 100 µM; in that of `O=C1CCCCCCCCCCOC(=O)CCCCCCCCCCO1`, inactive: > 100 µM. Regarding `COc1ccc(C2=C(N)c3cc(OC)ccc3C2=O)cc1`, the GI50 is inactive: > 100 µM. Consider `CCOC(=O)/C=C/n1c2ccccc2c(=O)c2ccccc21`, for which the GI50 was inactive: > 100 µM. Turning to `CCN(CC)c1ccc2c(c1)Nc1cc(=C(C#N)C#N)c3ccccc3c1=N2`, the GI50 was inactive: > 100 µM.

Take `COC(=O)c1cccc2c3ccccc3c3ccccc3c12`: the GI50 is inactive: 35.6 µM. Turning to `N#CC1(C#N)C(c2ccccc2)NC23CCCCC2C1(C#N)C(=O)N3` (stereo not drawn), the GI50 is inactive: > 100 µM.

Regarding `CCCNCC(=O)O[C@]1(CC)C(=O)OCc2c1cc1n(c2=O)Cc2cc3ccccc3nc2-1`, the GI50 is active: 0.537 µM. Regarding `ClC1CCC2OOC1O2` (stereo not drawn), the GI50 was inactive: > 100 µM. As to `O=C(c1ccccc1)[C@@H]1C[C@H](Sc2ccccc2)c2cc(Cl)ccc2N1`, the GI50 is inactive: 73.1 µM. As to `COc1ccc(OC)c(CNc2ccc(O)c(C(=O)NCCc3ccc(F)cc3)c2)c1`, the GI50 is inactive: 18.7 µM. For `CCOC(=O)C1=C(N)N(c2ccccc2)/C(=C(/C#N)c2nc3ccccc3[nH]2)S1`, the GI50 is inactive: > 100 µM. Next, `NC1=NN(c2ccccc2)C(=O)C1/C(=N\NC(=O)c1cc2ccccc2cc1O)C(=O)Nc1ccc(Cl)c(Cl)c1` (stereo not drawn): inactive: 29.3 µM; `CO[C@]12CC(=O)C3(C(C[C@H]4CC5CC=C6C[C@@H](OC(C)=O)CC[C@]6(OC(C)=O)C5C[C@@]43C)C1)C1C[C@H]3[C@@H]4CC=C5C[C@@H](OC(C)=O)CC[C@]5(OC(C)=O)[C@H]4CC[C@]3(C)C12` (stereo partly drawn): inactive: 38.5 µM; `COc1c2c(cc3c1-c1c(cc4c(c1OC)OCO4)C1OC3C(C)C1C)OCO2.COc1cc2c(c(OC)c1OC)-c1c(cc3c(c1OC)OCO3)C1OC2C(C)C1C` (stereo not drawn): inactive: > 100 µM. `C=C1C(=O)C23C(O)CC4C5(C)CCCC4(C(O)OC5)C2C(OC(C)=O)CC1C3O` (stereo not drawn): the GI50 was inactive: 11.5 µM.

As for `CN1OC(=O)N(C)C1c1ccccc1` (stereo not drawn), the GI50 was inactive: > 100 µM.

`CCc1cccc(C)c1NC(=O)C(=O)CC(=O)c1ccc(Cl)s1`: the GI50 was inactive: > 100 µM.

As for `Cc1nn(-c2ccccc2)c2nc3c(c(C)nn3-c3ccccc3)c(-c3ccc(C(F)(F)F)cc3)c12`, the GI50 was inactive: > 100 µM. In the case of `COc1ccc(C[C@H]2COC(=O)[C@@H]2Cc2cccc(Br)c2)cc1OC` it was inactive: 54.7 µM. Consider `CCCCC(=O)N/S(=N/C(=O)c1ccccc1)C(Cl)(Cl)Cl` (stereo not drawn), for which the GI50 was inactive: > 100 µM. Turning to `[N-]=[N+]=NC1(Cc2ccccc2)C(=O)Nc2ccccc2C1=O` (stereo not drawn), the GI50 was inactive: > 100 µM. In the case of `O=S1(=O)OCCOS(=O)(=O)C1Cc1cccc2ccccc12` it was inactive: 19.7 µM; in that of `COc1cc[n+](C)cc1`, inactive: > 100 µM. `CCOc1ccc(/N=N/S(=O)(=O)O)cc1`: the GI50 is inactive: > 100 µM. In the case of `C/C(=N\Nc1nc2ccccc2o1)c1ccc2ccccc2n1`, the GI50 was inactive: 3.3 µM. Next, `CC12CCC3(C1)[C@H](CC2=O)C[C@@H](OC(=O)c1ccccc1)C1C(C)(CO)CCC[C@@]13C` (stereo partly drawn): inactive: 5.53 µM.

As to `CN1C/C(=C\c2cccs2)C(O)/C(=C/c2cccs2)C1` (stereo not drawn), the GI50 is inactive: > 100 µM. Take `Cc1cc(-c2nc3cccc(O)c3s2)ccc1N`: the GI50 is inactive: 55.2 µM.
